# Among all 320,000 compounds or so, about 200 (0.062%) were called active. The shares of active, inactive and inconclusive entries below differ from those in the screen. Calls come from the whole dose curve; as a rule, active = well fitted activation curve with a large enough effect; inconclusive = small, poorly fitted or top-dose-only effect; inactive = no such curve, though single readings can be large or run the other way. Potencies of inconclusive entries are left out as doubtful fits.
# Assay: qHTS assay for re-activators of p53 using a Luc reporter; note: nearly all actives have a fitted effect of over 45% in size
# Details: H1299 p53-A138V BP100-luciferase reporter, luminescence, 24 h; series mostly up to 92.2 µM
# Summary of the method: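 p53-null H1299 cells stably carrying temperature-sensitive p53-A138V and a BP100-luciferase reporter were pinned with compounds (4-point, 1:5 series) and held 24 hrs at 37 deg C. Luminescence was read 10 min after detection reagent.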
# Potency is the fitted concentration of half-maximal effect; tags give direction and shape of the fitted curve.
row,SMILES,Potency
1,COc1ccc2sc(-c3ccc(N(C)C)cc3)c(C#CCO)c2c1,"inconclusive [activator, full curve, poor fit]"
2,COc1ccc(NC(=O)CNC(=O)c2sc3ccccc3c2Cl)c(OC)c1,"inconclusive [activator, single point]"
3,CCc1ccc(-c2cc(N)n(-c3ccccc3)n2)cc1,"inconclusive [activator, partial curve, poor fit]"
4,C[n+]1ccc(/C=C/c2c[nH]c3ccc(F)cc23)cc1,inactive
5,COc1ccc2cc(C[C@@H]3CC[C@@H](CO)O3)ccc2c1,"inconclusive [activator, partial curve, poor fit]"
6,O=C(NN=C1CCCCCCCCCCC1)c1ccncc1,inactive
7,CCC(C(=O)NC(C)(C)C)N(Cc1ccc(F)cc1)C(=O)c1snc(C(N)=O)c1N (stereo not given),"inconclusive [activator, single point]"
8,CCC1CCCCN1C(=O)CCCOc1ccccc1 (stereo not given),"inconclusive [activator, full curve, poor fit]"
9,O=C1CCC(C(=O)N2CCC(O)CC2)CN1CCc1ccc(Cl)cc1 (stereo not given),"inconclusive [activator, single point]"
10,CCc1cc2ccccc2nc1Cl,inactive
11,S=c1[nH]nc(-c2cccnc2)n1/N=C/C(Cl)=C\c1ccccc1,"inconclusive [activator, partial curve, poor fit]"
12,CCOc1cc2[nH]c(=O)n(Cc3ccccc3)c(=O)c2cc1OCC,inactive
13,CN(C(=O)CSc1nnc(COc2ccccc2F)n1N)C1CCCCC1,inactive
14,CC(C)(CNC(=O)c1ccc([N+](=O)[O-])c(Cl)c1)CNC(=O)c1ccc([N+](=O)[O-])c(Cl)c1,inactive
15,CC(=O)c1cccc(NC(=S)NC(=O)c2cncc(Br)c2)c1,"inconclusive [activator, full curve, poor fit]"
16,Cc1ccc(NC(=O)CNC2CCCCC2)cc1Cl,"inconclusive [activator, single point]"
17,COc1cc2c(c(OC)c1OC)-c1ccc(N(C)CC(OC)OC)c(=O)cc1[C@@H](NC(C)=O)CC2,inactive
18,Cc1ccc(C(=O)c2oc3ccccc3c2N)cc1,"inconclusive [activator, partial curve, poor fit]"
19,O=C(CSc1ccccc1)NCCSCc1ccccc1,"inconclusive [activator, single point]"
20,COc1ccccc1C1CCN(Cc2ccc(Cl)c(Cl)c2)CC1,inactive
21,CSc1cccc(NS(=O)(=O)c2cccs2)c1,inactive
22,CC(=O)Nc1ccc(NC(=O)Cc2ccc(-c3ccccc3)cc2)cc1,inactive
23,CCC(=O)N1CCN(c2nc(CC)nc3sc4c(c23)CCCC4)CC1,inactive
24,CC(C)Cn1cc(C(=O)NCc2cccs2)c2c3ccccc3n(C)c2c1=O,inactive

row,SMILES,Potency
1,O=C(Nc1nc(-c2ccccn2)cs1)C1COc2ccccc2O1 (stereo not given),"inconclusive [activator, partial curve, poor fit]"
2,O=C(O)c1cccc(Nc2nc(-c3cc4ccccc4oc3=O)cs2)c1,"inconclusive [activator, single point]"
3,Cc1cccc(-c2cc3nc(-c4ccccc4)cc(=O)n3[nH]2)c1,"inconclusive [activator, full curve, poor fit]"
4,O=C(Nc1ccccc1)Nc1cccc(Cl)c1Cl,"inconclusive [activator, partial curve, poor fit]"
5,Cc1cc(/C=C(\C#N)c2nc3ccccc3[nH]2)c(C)n1C,"inconclusive [activator, partial curve, poor fit]"
6,COc1ccc(C(=O)Nc2ccnn2C2CCN(C(=O)CCC(F)(F)F)CC2)cc1,"inconclusive [activator, partial curve, poor fit]"
7,O=C(O)c1ccc2nc3c(nc2c1)-c1ccccc1C3=O,inactive
8,c1ccc2sc(SCc3ccc(-c4nnco4)cc3)nc2c1,"inconclusive [activator, partial curve, poor fit]"
9,BrC(=C\c1ccccc1)/C=N/Nc1nc2ccccc2[nH]1,"inconclusive [activator, partial curve, poor fit]"
10,Cc1cccc(NC(=O)c2cnc3scc(C)n3c2=O)c1,"inconclusive [activator, full curve, poor fit]"
11,COc1ccc(-c2cn[nH]c2-c2ccc(OCc3ccccc3)cc2O)cc1OC,inactive
12,CCOc1ccc(S(=O)(=O)N2CCCC(C(=O)NCc3ccccc3)C2)cc1 (stereo not given),"inconclusive [activator, single point]"
13,CCOC(=O)c1cnc(-n2cc(C)cn2)nc1NCc1ccc2c(c1)OCO2,inactive
14,CC(=O)Nc1ccc(SC[C@H](C)CN2CC[C@H](C(C)(C)C)CCC2=O)cc1,"inconclusive [activator, single point]"
15,COc1ccc(NS(=O)(=O)c2cccc(NC(=O)c3ccc(Cl)nc3)c2)cc1,"inconclusive [activator, single point]"
16,CCN1C(=O)C2C(c3ccccc3F)NC(Cc3ccc(O)cc3)(C(=O)OC)C2C1=O (stereo not given),"inconclusive [activator, single point]"
17,Cc1ccc2nc(-c3ccc(NC(=O)C(C)N4C(=O)c5ccccc5C4=O)cc3)sc2c1 (stereo not given),"inconclusive [activator, full curve, poor fit]"
18,O=C(NCc1cc([N+](=O)[O-])ccc1O)c1cccnc1Sc1ccc(Cl)cc1,"inconclusive [activator, partial curve, poor fit]"
19,CCOc1ccc(S(=O)(=O)N2CCC(C(=O)NCC3CCCO3)CC2)cc1 (stereo not given),"inconclusive [activator, single point]"
20,COc1ccc(/C=N/NC(=O)c2ccccc2F)cc1CN1CCN(c2ccc(F)cc2)CC1,inactive
21,N/C(CS(=O)(=O)c1ccccc1)=N\OC(=O)c1ccc(F)cc1,"inconclusive [activator, partial curve, poor fit]"
22,COc1ccc(NC(=O)CN(Cc2ccco2)Cc2ccco2)cc1S(=O)(=O)N1CCCCC1,inactive
23,CCOC(=O)CC[C@H](NC(=O)Cn1cnc(C(=O)Nc2ccc(C)c(C)c2)n1)C(=O)OCC,"inconclusive [activator, partial curve, poor fit]"
24,NC(=O)c1sc2nc3c(c(-c4ccco4)c2c1N)CCC3,inactive

row,SMILES,Potency
1,COc1ccc(CCNC(=S)NC(=O)c2ccccc2)cc1OC,inactive
2,Cc1ccccc1CSCc1nc2ccccc2[nH]1,"inconclusive [activator, full curve, poor fit]"
3,CCc1ccc2c(c1)/C(=C/C(=O)c1cccs1)C(=O)N2,inactive
4,O=C(NNC(=O)C1CC=CCC1)c1ccccc1Cl (stereo not given),"inconclusive [activator, single point]"
5,Cc1ccsc1C(=O)NNC(=O)C1CC=CCC1C(=O)O (stereo not given),"inconclusive [activator, partial curve, poor fit]"
6,Cc1occc1C(=O)NNC(=O)COc1ccc(Br)cc1Br,"inconclusive [activator, partial curve, poor fit]"
7,CC(=O)c1c(Nc2ccc3c(c2)OCCO3)oc(C)cc1=O,"inconclusive [activator, single point]"
8,C#CCOCCOCCOCCNc1nc(N2CCN(C(=O)CCCCCCCCCCNC(=O)[C@H]([C@@H](C)CC)n3cc(CCCCN=C(N)N)nn3)CC2)nc(N2CCN(C(=O)CCCCCCCCCCNC(=O)[C@H](CCCN=C(N)N)n3cc(C[C@@H](C)CC)nn3)CC2)n1,inactive
9,CS(=O)(=O)c1ccc(Cl)c(NC(=O)CSc2nc3ccccc3c(=O)n2Cc2ccco2)c1,inactive
10,Cc1ccc2sc(NC(=O)C3CC3)nc2c1C,inactive
11,O=C(CCCCCn1c(=S)[nH]c2ccc(N3CCOCC3)cc2c1=O)NCc1ccccc1Cl,inactive
12,COc1ccccc1CCn1c(N)c(C#N)c2nc3ccccc3nc21,inactive
13,Cc1cc(NC(=O)c2ccc(Cl)cc2)no1,"inconclusive [activator, full curve, poor fit]"
14,O=C(Nc1ccc2nccnc2c1)c1cnccn1,"inconclusive [activator, partial curve, poor fit]"
15,CN(C)/C=C1/N=C(c2ccccc2)OC1=O,inactive
16,Cc1cccc(C2Nc3ccccc3C(=O)N2CCc2ccccc2)n1 (stereo not given),"inconclusive [activator, single point]"
17,COc1cccc(-c2noc(-c3cccs3)n2)c1,"inconclusive [activator, partial curve, poor fit]"
18,Cc1ccc(CNc2ccc(N3CCOCC3)cc2)s1,"inconclusive [activator, partial curve, poor fit]"
19,Cc1ccc(NC(=O)CN(C)C(=O)COC(=O)[C@@H](NC(=O)c2ccccc2F)C(C)C)cc1,inactive
20,O=C(CCC1CCCC1)Nc1ccc(Br)cn1,"inconclusive [activator, partial curve, poor fit]"
21,Cc1ccc(-c2cn(-c3ccccc3)c(SCC(=O)NC3CCS(=O)(=O)C3)n2)cc1C (stereo not given),"inconclusive [activator, partial curve, poor fit]"
22,CCC(=O)Nc1cc(-c2cc3ccccc3oc2=O)ccc1OC,inactive

# Reference: PubChem BioAssay AID504706 (National Center for Advancing Translational Sciences (NCATS), 2011)
